# Test results: PubChem BioAssay (NCATS)
# “And” between values parts separate entries of the source, which are not always exact repeats. Equal values may be shown once. The inconclusive results got no clear call from the source; some entries with a clear call stand among them for comparison. For part of these data: Where the call is inconclusive, the potency comes from a doubtful curve fit. The source made the active and inactive calls. The call rests on the fitted dose curve; in most records, active means well fitted curve in the direction sought with a large enough effect; inconclusive means small, poorly fitted or top-dose-only effect, or another doubt; inactive means no such curve, though single readings can be large; an effect the other way counts as inactive or inconclusive.
# Key:
# [1] = qHTS of pediatric cancer cell lines to identify multiple opportunities for drug repurposing: Primary screen for OHS-50 cells (AID 1347103); further: nearly all actives have a fitted effect of over 40% in size
# In short: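 Cells (500-1,000/well) rested 5 h, then received compounds for 48 h; metabolically active cells were measured by CellTiter-Glo luminescence. Final concentrations spanned up to 46 µM (MIPE, 11-point) or 0.59 nM-46 µM (NPC, 8-point) in primary screens, 11-point in follow-ups.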
# C33A = test: Primary qHTS to identify gynecologic anti-cancer compounds using libraries of approved drugs and bioactive compounds (AID 1345084); conditions: Gynecologic cancer cell panel viability, ATPlite luminescence, 48 h; series mostly up to 57.5 µM; further: nearly all actives have a fitted effect of over 55% in size
# In short: (§1)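 ATP-based viability (ATPlite), 1,000 cells/well, 16 h pre-incubation, 48 h compound at 37 C, 5% CO2, 15 min RT before read.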
# [2] = target: Phospholipid hydroperoxide glutathione peroxidase GPX4 (Homo sapiens) (UniProt P36969); test: Primary qHTS Assay for Inhibitors of Recombinant Selenoprotein Glutathione Peroxidase 4 (GPX4) (AID 1845192); further: nearly all actives have a fitted effect of over 65% in size
# In short: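 Steps: GPX4 plus compound, 30 min RT; add GR/GSH/NADPH master mix; start with cumene hydroperoxide; read 340/450 nm fluorescence at 0 and 15 min. Finals were 200 nM GPX4, 1 mM GSH, 0.5 mM CHP, 0.5 mM NADPH, 100 nM GR.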
# [3] = Quantitative High-Throughput drug screen in 47 multiple myeloma cell lines against the NCATS MIPE library collection: Karpas25_ECACC cell viability assay (AID 1918968; further: nearly all actives have a fitted effect of over 35% in size)
# In short: (§2)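 qHTS of the MIPE 4.0 collection: 500 myeloma cells/well, 48 h drug exposure at 37C in 5% CO2, then CellTiter-Glo for 5 min at room temperature before luminescence reading.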
# [4] = Quantitative High-Throughput drug screen in 47 multiple myeloma cell lines against the NCATS MIPE library collection: MM1S_ATCC cell viability assay (AID 1918980); further: nearly all actives have a fitted effect of over 45% in size
# In short: (§3)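 500 cells/well; MIPE 4.0 drugs pin-transferred; 48 h, 37C, 5% CO2. CellTiter-Glo, 5 min RT, luminescence. Controls: DMSO 100%, media 0%.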
# [5] = target: Tyrosine-protein kinase Yes (Homo sapiens) (UniProt P07947); test: qHTS for small molecule inhibitors of Yes1 kinase: Primary Screen (AID 686947); further: nearly all actives have a fitted effect of over 60% in size
# In short: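 In this qHTS format, inhibition is expressed relative to DMSO controls with enzyme (maximum) and without enzyme (minimum). The 60 min room-temperature reaction uses 0.1 mM ATP, with ADP detected by luminescence.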
# [6] = Quantitative High-Throughput drug screen in 47 multiple myeloma cell lines against the NCATS MIPE library collection: Delta47_JCRB cell viability assay (AID 1918925; further: nearly all actives have a fitted effect of over 45% in size)
# In short: as §2
# [7] = qHTS of pediatric cancer cell lines to identify multiple opportunities for drug repurposing: Confirmatory screen for A673 cells (AID 1347110); further: nearly all actives have a fitted effect of over 65% in size
# In short: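 Cells plated at 500-1,000/well were treated five hours later with multi-point dilutions up to 46 µM final. After two days, CellTiter-Glo was added and luminescence read.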
# [8] = qHTS of pediatric cancer cell lines to identify multiple opportunities for drug repurposing: Confirmatory screen for BT-12 cells (AID 1347112); further: nearly all actives have a fitted effect of over 55% in size
# In short: (§4)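 Viability after 48 h compound treatment at 37C, 500-1,000 cells/well, read as ATP luminescence with CellTiter-Glo. Primary screens used 11-point (MIPE, 0.78 nM-46 µM) or 8-point (NPC, 0.59 nM-46 µM) final concentrations; follow-up screens used 11-point dilutions.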
# [9] = qHTS of pediatric cancer cell lines to identify multiple opportunities for drug repurposing: Confirmatory screen for LAN-5 cells (AID 1347113); further: nearly all actives have a fitted effect of over 65% in size
# In short: as §4
# [10] = qHTS of pediatric cancer cell lines to identify multiple opportunities for drug repurposing: Confirmatory screen for DAOY cells (AID 1347114); further: nearly all actives have a fitted effect of over 65% in size
# In short: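 Viability measured as metabolically active cells via CellTiter-Glo luminescence following 48 hours of compound exposure, 11-point dilutions in confirmatory testing. 500-1,000 cells/well plated 5 hours before dosing; controls were DMSO and 2.3 µM bortezomib.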
# [11] = qHTS of pediatric cancer cell lines to identify multiple opportunities for drug repurposing: Confirmatory screen for U-2 OS cells (AID 1347122); further: nearly all actives have a fitted effect of over 65% in size
# In short: as §4
# [12] = qHTS of pediatric cancer cell lines to identify multiple opportunities for drug repurposing: Confirmatory screen for Rh18 cells (AID 1347125); further: nearly all actives have a fitted effect of over 55% in size
# In short: as §4
# Es-2 = test: Primary qHTS to identify gynecologic anti-cancer compounds using libraries of approved drugs and bioactive compounds (AID 1345084); conditions: Gynecologic cancer cell panel viability, ATPlite luminescence, 48 h; series mostly up to 57.5 µM; further: nearly all actives have a fitted effect of over 55% in size
# In short: as §1
# Tov112D = test: as above; conditions: Gynecologic cancer cell panel viability, ATPlite luminescence, 48 h; series mostly up to 57.5 µM
# In short: as §1
# [13] = Quantitative High-Throughput drug screen in 47 multiple myeloma cell lines against the NCATS MIPE library collection: NCIH929_DSMZ cell viability assay (AID 1918978); further: nearly all actives have a fitted effect of over 35% in size
# In short: as §3
# JEG-3 = test: Primary qHTS to identify gynecologic anti-cancer compounds using libraries of approved drugs and bioactive compounds (AID 1345084); conditions: Gynecologic cancer cell panel viability, ATPlite luminescence, 48 h; series mostly up to 57.5 µM; further: nearly all actives have a fitted effect of over 55% in size
# In short: as §1
# [14] = qHTS of pediatric cancer cell lines to identify multiple opportunities for drug repurposing: Confirmatory screen for control Hh wild type fibroblast cells (AID 1347121); further: nearly all actives have a fitted effect of over 70% in size
# In short: as §4
# [15] = qHTS of pediatric cancer cell lines to identify multiple opportunities for drug repurposing: Confirmatory screen for NB-EBc1 cells (AID 1347115); further: nearly all actives have a fitted effect of over 45% in size
# In short: as §4
# [16] = qHTS of pediatric cancer cell lines to identify multiple opportunities for drug repurposing: Confirmatory screen for Rh30 cells (AID 1347126); conditions: Rh30 rhabdomyosarcoma cell viability; activity change, negative = cytotoxic: at 45.9 µM (top of the series); further: nearly all actives have a fitted effect of over 55% in size
# In short: as §4
# Potency means the concentration at half of the fitted maximal effect; tags describe the fitted curve by direction and shape.
# Sequence of UniProt P07947 (P07947 whole entry, looked up): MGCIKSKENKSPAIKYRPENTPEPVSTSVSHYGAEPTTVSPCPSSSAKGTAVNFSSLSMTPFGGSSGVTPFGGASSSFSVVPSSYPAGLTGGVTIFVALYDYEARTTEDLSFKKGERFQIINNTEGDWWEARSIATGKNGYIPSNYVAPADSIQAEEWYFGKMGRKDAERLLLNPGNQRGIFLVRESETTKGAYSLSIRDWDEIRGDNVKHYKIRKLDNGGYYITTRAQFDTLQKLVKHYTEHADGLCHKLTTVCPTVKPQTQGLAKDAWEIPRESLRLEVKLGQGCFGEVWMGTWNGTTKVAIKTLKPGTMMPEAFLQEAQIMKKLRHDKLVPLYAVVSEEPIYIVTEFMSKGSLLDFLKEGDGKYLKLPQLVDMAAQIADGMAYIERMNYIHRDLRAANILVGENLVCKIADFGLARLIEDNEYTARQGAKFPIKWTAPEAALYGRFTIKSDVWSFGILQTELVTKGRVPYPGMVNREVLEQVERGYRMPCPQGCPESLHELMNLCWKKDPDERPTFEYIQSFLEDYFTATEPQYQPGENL
# Sequence of UniProt P36969 (P36969 whole entry, looked up): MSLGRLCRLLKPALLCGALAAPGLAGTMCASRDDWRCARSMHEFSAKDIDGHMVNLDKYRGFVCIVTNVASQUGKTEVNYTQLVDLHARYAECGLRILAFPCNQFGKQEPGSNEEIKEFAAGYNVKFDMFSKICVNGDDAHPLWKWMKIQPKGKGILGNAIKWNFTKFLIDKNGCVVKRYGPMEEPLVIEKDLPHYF
structure (smiles),measurement,setting,value
C[C@H](NC(=O)Cc1cc(F)cc(F)c1)C(=O)N[C@@H]1C(=O)N(C)c2ccccc2-c2ccccc21,Potency,[1],"inconclusive: 24.3 µM [cytotoxic, partial curve]"
CN(NC(=O)CC(=O)NN(C)C(=S)c1ccccc1)C(=S)c1ccccc1,Potency,C33A,inconclusive: 50.1 µM
O=C(c1ccc(Nc2nccc(-c3cc4ccccc4s3)n2)cc1)N1CCC(N2CCCC2)CC1,Potency,[2],"inconclusive: 25.5 µM [inhibitor, single point]"
CCC[C@H](NC(=O)C(C#N)=Cc1cccc(Br)n1)c1ccccc1,Potency,[3],active: 1.48 µM
NC(=O)c1ccc(-c2nc(-c3ccc4c(c3)OCO4)c(-c3ccccn3)[nH]2)cc1,Potency,[3],"inconclusive: 18.7 µM [cytotoxic, partial curve, poor fit]"
same,Potency,[4],inactive
Cc1c(CCOc2ccc(C(=O)O)cc2)c2cc(Cl)ccc2n1C(c1ccccc1)c1ccccc1,Potency,[5],"inconclusive: 54.7 µM [inhibitor, single point]"
same,Potency,[1],"inconclusive: 27.3 µM [cytotoxic, partial curve]"
same,Potency,[2],"inconclusive: 10.1 µM [inhibitor, partial curve]"
same,Potency,[6],"inconclusive: 0.0105 µM [cytotoxic, full curve, poor fit]"
same,Potency,[4],active: 9.35 µM
COc1cccc2cc(-c3nc(C4CCC(C(=O)O)CC4)n4ncnc(N)c34)[nH]c12 (stereo unspecified),Potency,[7],"inconclusive: 5.85 µM [cytotoxic, full curve]"
same,Potency,[8],"inconclusive: 5.22 µM [cytotoxic, full curve, poor fit]"
same,Potency,[9],"inconclusive: 10.4 µM [cytotoxic, partial curve, poor fit]"
same,Potency,[10],"inconclusive: 5.22 µM [cytotoxic, full curve]"
same,Potency,[11],"inconclusive: 0.928 µM [cytotoxic, full curve]"
same,Potency,[12],"inconclusive: 13.1 µM [cytotoxic, partial curve, poor fit]"
same,Potency,[3],active: 0.662 µM
same,Potency,C33A,active: 7.94 µM
same,Potency,Es-2,active: 7.08 µM
same,Potency,Tov112D,"inconclusive: 1.12 µM [cytotoxic, full curve]"
S=C(NCc1ccc2c(c1)OCO2)N1CCN(c2ncnc3c2oc2ccccc23)CC1,Potency,[2],"inconclusive: 9.04 µM [inhibitor, partial curve]"
same,Potency,C33A,"inconclusive: 14.1 µM [cytotoxic, partial curve]"
same,Potency,Es-2,"inconclusive: 31.6 µM [cytotoxic, single point]"
COc1cc2ncn(-c3cc(OCc4ccccc4C(F)(F)F)c(C(N)=O)s3)c2cc1OC,Potency,[5],"inconclusive: 20.7 µM [inhibitor, partial curve, poor fit]"
CS(=O)(=O)c1cccc(CNc2nc(Nc3ccc4c(c3)CCC(=O)N4)ncc2C(F)(F)F)c1,Potency,[13],active: 10.5 µM
same,Potency,JEG-3,"inconclusive: 39.8 µM [cytotoxic, single point]"
NC1(c2ccc(-c3nc4ccn5c(=O)[nH]nc5c4cc3-c3ccccc3)cc2)CCC1,Potency,[5],"inconclusive: 38.7 µM [inhibitor, partial curve]"
same,Potency,[2],"inconclusive: 18 µM [inhibitor, single point]"
same,Potency,[4],active: 0.662 µM
same,Potency,JEG-3,"inconclusive: 25.1 µM [cytotoxic, single point] and inconclusive: 35.5 µM [cytotoxic, single point]"
O=C(C=Cc1cccc(S(=O)(=O)Nc2ccccc2)c1)NO,Potency,[7],active: 6.03 µM
same,Potency,[14],"inconclusive: 2.4 µM [cytotoxic, full curve, poor fit]"
same,Potency,[12],active: 1.91 µM
C[C@@]12O[C@@H](C[C@]1(O)CO)n1c3ccccc3c3c4c(c5c6ccccc6n2c5c31)CNC4=O,Potency,[14],active: 18.5 µM
same,Potency,[11],active: 0.737 µM
same,Potency,[2],"inconclusive: 11.4 µM [inhibitor, partial curve]"
same,Potency,[4],active: 1.05 µM
COc1ccc(C2=N[C@H](c3ccc(Cl)cc3)[C@H](c3ccc(Cl)cc3)N2C(=O)N2CCNC(=O)C2)c(OC(C)C)c1,Potency,[1],"inconclusive: 48.5 µM [cytotoxic, single point]"
same,Potency,[6],active: 2.35 µM
same,Potency,[3],"inconclusive: 20.9 µM [cytotoxic, partial curve]"
CC(NCc1ccc2c(c1)nc(NC(=O)c1ccc(-c3cn[nH]c3)s1)n2CC(C)(C)O)C(C)(C)C (stereo unspecified),Potency,[9],"inconclusive: 0.522 µM [cytotoxic, full curve, poor fit]"
same,Potency,[15],active: 0.827 µM
same,Potency,[14],active: 7.37 µM
O=C1NC2CCCCN2C12CCN(CCCN1c3ccccc3CCc3ccc(Cl)cc31)CC2 (stereo unspecified),Potency,Es-2,"inconclusive: 39.8 µM [cytotoxic, single point]"
same,Potency,Tov112D,"inconclusive: 39.8 µM [cytotoxic, single point]"
O=C(O)c1cc(-c2ccccc2)nc2ccccc12,Potency,Es-2,"inconclusive: 35.5 µM [cytotoxic, partial curve, poor fit]"
same,Potency,JEG-3,"inconclusive: 39.8 µM [cytotoxic, partial curve, poor fit] and inconclusive: 22.4 µM [cytotoxic, single point]"
same,Potency,Tov112D,"inconclusive: 63.1 µM [cytotoxic, single point]"
CN(C)c1cccc(-c2c3c(=O)n(-c4ccccc4Cl)[nH]c3cc(=O)n2C)c1,Potency,[2],"inconclusive: 18 µM [inhibitor, partial curve]"
CC(C)C[C@H](NC(=O)CNC(=O)c1cc(Cl)ccc1Cl)B(O)O,Potency,[1],active: 6.11 µM
same,Potency,[8],active: 0.465 µM
same,Potency,[9],"inconclusive: 0.0131 µM [cytotoxic, full curve, poor fit]"
same,Potency,[15],"inconclusive: 0.414 µM [cytotoxic, full curve, poor fit]"
same,Potency,[14],"inconclusive: 1.31 µM [cytotoxic, partial curve, poor fit]"
same,Potency,[16],"inconclusive: 0.465 µM [cytotoxic, full curve]"
same,Potency,[13],active: 0.0372 µM
CC(C)(C)c1cnc(CSc2cnc(NC(=O)C3CCNCC3)s2)o1,Potency,[9],active: 0.261 µM
same,Potency,[15],"inconclusive: 1.85 µM [cytotoxic, full curve]"
same,Potency,[12],"inconclusive: 0.585 µM [cytotoxic, full curve]"
same,Potency,[16],"inconclusive: 0.293 µM [cytotoxic, full curve]"
CN(C)CC=CC(=O)Nc1cc2c(Nc3ccc(F)c(Cl)c3)ncnc2cc1O[C@H]1CCOC1,Potency,[1],active: 3.06 µM
CC[C@@H]1C(=O)N(C)c2cnc(Nc3ccc(C(=O)NC4CCC(N5CCN(CC6CC6)CC5)CC4)cc3OC)nc2N1C(C)C (stereo partly specified),Potency,[1],active: 0.122 µM
same,Potency,[7],"inconclusive: 36.9 µM [cytotoxic, single point]"
same,Potency,[8],inactive
same,Potency,[9],inactive
same,Potency,[10],inactive
same,Potency,[15],inactive
same,Potency,[3],active: 5.26 µM
same,Potency,[13],active: 1.32 µM
same,Potency,C33A,"inconclusive: 282 nM [cytotoxic, full curve, poor fit] and inconclusive: 44.7 µM [cytotoxic, partial curve, poor fit]"
same,Potency,Es-2,"inconclusive: 631 nM [cytotoxic, partial curve, poor fit] and active: 3.98 µM"
same,Potency,JEG-3,"inconclusive: 224 nM [cytotoxic, full curve, poor fit] and inconclusive: 12.6 µM"
same,Potency,Tov112D,"inconclusive: 100 nM [cytotoxic, full curve, poor fit] and inconclusive: 56.2 µM"
C[C@@H](Oc1cc(-n2cnc3ccc(CN4CCN(C)CC4)cc32)sc1C(N)=O)c1ccccc1C(F)(F)F,Potency,[7],active: 0.117 µM
same,Potency,[8],active: 47.9 µM
same,Potency,[10],"inconclusive: 0.0117 µM [cytotoxic, full curve, poor fit]"
same,Potency,[14],active: 42.7 µM
same,Potency,[11],"inconclusive: 16.5 µM [cytotoxic, partial curve, poor fit]"
same,Potency,[16],active: 13.1 µM
same,Potency,[6],active: 0.0418 µM
